# Patent US5898069A, “Phosphate assay” (Medical Research Council, priority 1993, dated 1999)
# How the values were obtained:
# Settings in all cases: ~5 μM labelled PBP in 10 mM Tris.HCl pH 8.0, 50 μM Pi added
# PBP mutant D292C = target: T1, PBP mutant D292C (Escherichia coli, UniProt P0AG82, D317C); type: binding, E. coli
# T1 construct: from the Nterminus of the mature protein; made in house; host or cells: E. coli strain ANCC75, plasmid pSN5182/N, periplasm
# From the text: (e) Using the Pi mop, the fluorescence change was 65%.
# PBP mutant A197C = PBP mutant A197C (Escherichia coli, UniProt P0AG82, A222C)
# Chain of PBP mutant A197C (P0AG82 26-346 A222C): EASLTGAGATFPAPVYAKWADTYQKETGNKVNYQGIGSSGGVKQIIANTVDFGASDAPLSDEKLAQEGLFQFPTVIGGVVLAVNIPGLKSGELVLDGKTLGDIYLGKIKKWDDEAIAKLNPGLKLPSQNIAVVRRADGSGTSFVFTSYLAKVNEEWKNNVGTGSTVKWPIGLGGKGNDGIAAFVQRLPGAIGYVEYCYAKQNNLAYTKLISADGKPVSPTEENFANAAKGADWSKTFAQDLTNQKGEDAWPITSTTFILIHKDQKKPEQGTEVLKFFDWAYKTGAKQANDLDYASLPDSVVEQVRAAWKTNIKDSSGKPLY
# Description: Labelling A197C PBP with 7-diethylamino-3-[4'-(1-maleimidyl)phenyl]-4-methylcoumarin (CPM) 100 μM A197C and 400 μM CPM were incubated in 8 ml of 10 mH Tris-HCl, pH 8.1 at room temperature for 4 h on an end-over-end mixer. The protein was purified on a Biogel P4 gel filtration column (15×70 cm) eluting with 10 mM Tris.HCl pH 8.0. The protein was filtered through a 0.2μm pore size membrane filter (Acrodisc 13, Gelman), and loaded onto a 10 ml Q-Sepharose column, equilibrated with 10 mM Tris.HCl, pH 7.6, 1 mM MgCl2. After washing, the protein was eluted by a 200 mL gradient of 0-50 mM NaCl in this buffer. The purity of the labelled protein was checked by its fluorescence change with Pi, by its absorbance spectrum and by SDS gel electrophoresis with both Coomassie blue staining and fluorescence visualisation. The yield was typically about 50% of the starting material.
# Labelling A197C PBP with N-[2-(1-maleimidyl)ethyl]-7-diethylaminocoumarin-3-carboxamide (MDCC) 100 μM A197C and 500 μM MDCC (from a 25 mM solution in dimethylformamaide) were incubated in 8 ml of 20 mM Tris-HCl, pH 8.1 at room temperature for 4 h on an end-over-end mixer. The protein was filtered through a 0.2 μm pore size membrane filter (Acrodisc 13, Gelman) and purified on a Biogel P4 gel filtration column (1.5×70 cm) eluting with mM Tris-HCl, pH 8.0. The protein was loaded onto a 25 ml Q-Sepharose column, equilibrated with 10 mM Tris-HCl, pH 7.6, 1 mM MgCl2. After washing, the protein was eluted by a 200 mL gradient of 0-50 mM NaCl in this buffers. The purity of the labeled protein was checked by its fluorescence change with Pi, by its absorbance spectrum and by SDS gel electrophoresis with both Coomassie blue staining and fluorescence visualization. The yield was typically ~50% of the starting material. The concentration of the labeled protein was determined by the absorbance at 280 nm, after correcting for the absorbance due to the label (0.164 of that at 430 nm). The spectrum of the label was assumed to be the same as that determined for the adduct of MDCC with dithiothreitol.
# (§1) Measurements Absorbance spectra were obtained on a Beckman DU70 spectrophotometer. Fluorescence measurements were obtained on a Farrand Mkl or a SLM 8000 photon counting spectrofluorimeter. Stopped flow experiments were carried out in a HiTech PQ/SF-53 apparatus, with a mercury lamp and HiTech IS-2 software.
# PBP was purified from the periplasm of E. coli strain ANCC75, overexpressing phos in a multicopy plasmid (Morita et al., 1983). A 4-liter culture gave 400-600 mg of PBP with a purity greater than 95% by polyacrylamide gel electrophoresis. The wild-type protein contains no cysteines and so fluorescent groups were attached initially via amines or carboxyls. All attempts to label the wild-type protein with a fluorophore gave at best a 15% fluorescence change on Pi binding, about the same as that observed for the intrinsic tryptophan fluorescence. This is possibly due to relatively non-specific and multiple labeling To ensure that a single label could be attached, mutant PBP proteins were obtained by replacing single residues by cysteine, using oligonucleotide directed mutagenesis. The positions were chosen such that the residues were at the edge of the Pi -binding cleft described by Luecke & Quiocho (1990). […] One combination of mutant (A1297C) and fluorophore (MDCC; FIG. 1) gave a large fluorescence change with Pi, although several closely related fluorophores, including CPM and DACM, gave much smaller, changes. […]
# PBP mutant G140C = PBP mutant G140C (Escherichia coli, UniProt P0AG82, G165C)
# Chain of PBP mutant G140C (P0AG82 26-346 G165C): as the sequence (P0AG82 26-346 A222C) above, with G140C, C197A counted along it
# Description: (§2) Other fluorescent labels were attached in a similar way to PBP mutants, with minor modifications to the procedure, such as the ratio of label to the protein, reaction time, and pH.
# as §1
# (§3) PBP was purified from the periplasm of E. coli strain ANCC75, overexpressing phos in a multicopy plasmid (Morita et al., 1983). A 4-liter culture gave 400-600 mg of PBP with a purity greater than 95% by polyacrylamide gel electrophoresis. The wild-type protein contains no cysteines and so fluorescent groups were attached initially via amines or carboxyls. All attempts to label the wild-type protein with a fluorophore gave at best a 15% fluorescence change on Pi binding, about the same as that observed for the intrinsic tryptophan fluorescence. This is possibly due to relatively non-specific and multiple labeling To ensure that a single label could be attached, mutant PBP proteins were obtained by replacing single residues by cysteine, using oligonucleotide directed mutagenesis. The positions were chosen such that the residues were at the edge of the Pi -binding cleft described by Luecke & Quiocho (1990). These would be expected to experience a significant change in environment on Pi binding, although the structure is known only for the Pi -bound form of PBP. In addition, the mutated residues were not directly involved in Pi binding as elucidated by Luecke & Quiocho (1990). One combination of mutant (A1297C) and fluorophore (MDCC; FIG. 1) gave a large fluorescence change with Pi, although several closely related fluorophores, including CPM and DACM, gave much smaller, changes. Most other labeled mutants were not tested to determine whether the lack of Pi sensitivity is because they lacked Pi binding, or because the fluorophore is insensitive to the putative conformation change. Serine 139 is involved in Pi binding (Luecke & Quiocho, 1990), so the labeled S139C mutant PBP might be expected to be deficient in Pi binding: this labeled mutant was therefore used as a null control. The A197C mutant was overproduced to the same extent as wild-type protein, so large amounts of the labeled protein could be obtained.
# (§4) The conditions for measurement of fluorescence were ~5 μM
# (§5) labelled PBP in 10 mM Tris.HCl pH 8.0, to which 50 μM Pi was
# (§6) added. Excitation and emission were at the maximum wavelength. DEM is […]
# PBP mutant A57C = PBP mutant A57C (Escherichia coli, UniProt P0AG82, A82C)
# Chain of PBP mutant A57C (P0AG82 26-346 A82C): as the sequence (P0AG82 26-346 A222C) above, with A57C, C197A counted along it
# Description: as §2, §1, §3, §4, §5, §6
# PBP mutant S139C = PBP mutant S139C (Escherichia coli, UniProt P0AG82, S164C)
# Chain of PBP mutant S139C (P0AG82 26-346 S164C): as the sequence (P0AG82 26-346 A222C) above, with S139C, C197A counted along it
# Description: as §2, §1, §3, §4, §5, §6
# PBP mutant A9C = PBP mutant A9C (Escherichia coli, UniProt P0AG82, A34C)
# Chain of PBP mutant A9C (P0AG82 26-346 A34C): as the sequence (P0AG82 26-346 A222C) above, with A9C, C197A counted along it
# Description: as §2, §1, §3, §4, §5, §6
# T1 sequence (P0AG82 26-346 D317C): as the sequence (P0AG82 26-346 A222C) above, with C197A, D292C counted along it
SMILES,percent increase in fluorescence on adding Pi (PBP mutant D292C),percent increase in fluorescence on adding Pi (PBP mutant A197C),percent increase in fluorescence on adding Pi (PBP mutant G140C),percent increase in fluorescence on adding Pi (PBP mutant A57C),percent increase in fluorescence on adding Pi (PBP mutant S139C),percent increase in fluorescence on adding Pi (PBP mutant A9C)
C=CC(=O)c1ccc2cc(N(C)C)ccc2c1 [Acrylodan],19%,0%,0%,-3%,-15%,10%
"CCN(CC)c1ccc2c(C)c(-c3ccc(N4C(=O)C=CC4=O)cc3)c(=O)oc2c1 [CPM, 7-diethylamino-3-[4'-(1-maleimidyl)phenyl]-4-methylcoumarin]",–,65%,-10%,-4%,0%,15%
CCN(CC)c1ccc2c(C)c(-c3ccc(N4C(=O)C=CC4=O)cc3)c(=O)oc2c1 [CPM],-6%,–,–,–,–,–
"Cc1c(N2C(=O)C=CC2=O)c(=O)oc2cc(N(C)C)ccc12 [DACM, 7dimethylamino-3-(1-maleimidyl)-4-methylcoumarin]",0%,34%,–,–,10%,–
CN(C)c1cccc2c(S(=O)(=O)NCCN3C(=O)C=CC3=O)cccc12 [DEM],–,–,0%,–,0%,0%
CN(C)c1cccc2c(S(=O)(=O)N3CC3)cccc12 [Dansyl aziridine],4%,–,0%,–,–,20%
"CCN(CC)c1ccc2cc(C(=O)NCCN3C(=O)C=CC3=O)c(=O)oc2c1 [MDCC, N-[2-(1-Maleimidyl)ethyl] 7-diethylaminocoumarin-3-carboxamide]",-2%,405%,–,–,0%,–
"O=C1C=CC(=O)N1c1ccc(Nc2ccc3cc(S(=O)(=O)O)ccc3c2)cc1 [MIANS, 2[4(1-maleimidyl)anilino]naphthalene6-sulfonic acid]",21%,20%,–,–,–,–
